Results: PubChem BioAssay AID588342 (National Center for Advancing Translational Sciences (NCATS), 2011)
In all, about 360,000 compounds went through this assay and about 25,000 (6.9%) were called active. Inconclusive means that the source gave no clear call. Such entries were picked first, then a sample of the others. The call rests on the fitted dose curve; in most records, active means well fitted inhibition curve with a large enough effect; inconclusive means small, poorly fitted or top-dose-only effect; inactive means flat fitted curve, though single readings scatter. Potencies beside an inconclusive call are fits to weak or partial responses and may not hold up.
Further: nearly all actives have a fitted effect of over 55% in size.
Potency means the concentration at half of the fitted maximal effect; tags describe the fitted curve by direction and shape.
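Wherever activity change, negative = inhibition is given: plate controls were vehicle for no effect and reference inhibitor for full effect.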

The compounds below were run against Luciferin 4-monooxygenase (Photinus pyralis) (UniProt P08659) (assay: qHTS profiling assay for firefly luciferase inhibitor/activator using purifed enzyme and Km concentrations of substrates (counterscreen for miR-21 project)). Settings: purified FLuc, luminescence inhibition; series mostly up to 57.5 µM; activity change, negative = inhibition: at the top concentration.
Chain of UniProt P08659 (P08659 whole entry, looked up): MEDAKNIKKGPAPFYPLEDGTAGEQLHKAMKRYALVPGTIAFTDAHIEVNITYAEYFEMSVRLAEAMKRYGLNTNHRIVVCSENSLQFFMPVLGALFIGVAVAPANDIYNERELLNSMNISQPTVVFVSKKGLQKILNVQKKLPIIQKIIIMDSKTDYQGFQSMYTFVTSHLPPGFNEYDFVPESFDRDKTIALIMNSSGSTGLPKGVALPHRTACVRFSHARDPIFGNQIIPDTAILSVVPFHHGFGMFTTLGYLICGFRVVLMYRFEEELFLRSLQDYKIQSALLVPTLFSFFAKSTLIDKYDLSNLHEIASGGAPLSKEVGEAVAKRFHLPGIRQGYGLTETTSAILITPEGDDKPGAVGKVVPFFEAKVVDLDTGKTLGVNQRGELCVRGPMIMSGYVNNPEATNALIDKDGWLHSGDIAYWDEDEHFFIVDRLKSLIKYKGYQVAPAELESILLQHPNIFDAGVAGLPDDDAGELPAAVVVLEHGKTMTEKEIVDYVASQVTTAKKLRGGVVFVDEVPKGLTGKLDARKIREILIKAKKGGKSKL
In short: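 Purified P. pyralis luciferase (10nM final) with 10uM D-luciferin and 10uM ATP (Km levels) in 50mM Tris acetate pH 7.5, 10mM Mg acetate, 0.01% Tween-20, 0.05% BSA; qHTS 6-point titration, ~60 µM downward; luminescence read.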
With `O=S(=O)(c1ccc(-c2n[nH]c(=S)o2)cc1)N1CCCC1` the “activity change, negative = inhibition” value was inactive: -3.41%. For `Cc1nc2cc(-c3cccc(F)c3)nn2c(C)c1CCC(=O)N1CCN(c2ccccn2)CC1`, the “activity change, negative = inhibition” value was inactive: -8.66%. `Cc1ccnc(NC(=O)CCC(=O)N(CC(=O)NC2CCCCC2)Cc2cccs2)c1` was tested, and the “activity change, negative = inhibition” value was inactive: -5.54%. For `O=C(NCCS(=O)(=O)N1CCN(c2ccc(F)cc2)CC1)c1ccco1`, the “activity change, negative = inhibition” value was inactive: 6.59%. For `CN(c1ccc(C(=O)Nc2cccc([N+](=O)[O-])c2)cc1)S(C)(=O)=O`, the Potency was inconclusive: 21.3 µM [inhibitor, partial curve, poor fit]. With `Cc1ccc2[nH]c(-c3ccccc3)c(CN(C)C)c(=O)c2c1` the Potency was inconclusive: 23.9 µM [inhibitor, partial curve, poor fit]. In the case of `CCSc1ccc(NC(=O)c2cccnc2)cc1`, the Potency was inconclusive: 16.9 µM [inhibitor, partial curve]. For `CCN(C(=O)c1sc2nc3n(c(=O)c2c1C)CCCCC3)c1ccc(OC)cc1`, the Potency was inconclusive: 10.7 µM [inhibitor, partial curve, poor fit]. In the case of `COc1ccccc1Nc1nc(N)nc(CSC(=S)N2CCCCC2C)n1` (stereo not drawn), the Potency was inconclusive: 23.9 µM [inhibitor, single point]. With `COc1cc(/C=N/NC(=O)COc2ccccc2[N+](=O)[O-])ccc1OC(=O)c1ccco1` the Potency was inconclusive: 21.3 µM [inhibitor, partial curve, poor fit]. `CC(=O)Nc1ccc2nc(-c3cc(C)ccc3C)[nH]c2c1` was tested, and the Potency was inconclusive: 30.1 µM [inhibitor, partial curve, poor fit]. `CCCn1c(O)c(N=Nc2ccc3ccccc3n2)c2ccccc21` was tested, and the Potency was active: 8.49 µM. In the case of `c1ccc(C2Nc3ccccc3-c3nc4ccccc4n32)nc1` (stereo not drawn), the Potency was inconclusive: 23.9 µM [inhibitor, partial curve]. `CC(=O)Nc1c(O)nc(SCC(=O)Nc2nnc(SCc3ccccc3)s2)[nH]c1=O` was tested, and the Potency was inconclusive: 19 µM [inhibitor, partial curve]. For `CCOC(=O)c1ccc(N=C2S/C(=C\c3cc(C)n(-c4cccnc4)c3C)C(=O)N2C)cc1`, the “activity change, negative = inhibition” value was inactive: 2.9%. With `O=C(NCCc1cn2ccccc2n1)c1ccccc1F` the “activity change, negative = inhibition” value was inactive: 2.28%. In the case of `CC(C)c1ccc(/C=N/NC(=O)C2CCCC2)cc1`, the Potency was active: 12 µM. In the case of `COc1cc(CCC(C)=O)ccc1OC(=O)c1c(F)cccc1Cl`, the Potency was active: 12 µM. With `Nc1c(C(=O)CSc2nnc(Cc3ccccc3)o2)c(=O)[nH]c(=O)n1C1CC1` the “activity change, negative = inhibition” value was inactive: -0.398%. In the case of `O=C(COc1ccc(OCc2ccccc2)cc1)NN=C1CCCC1`, the Potency was inconclusive: 26.9 µM [inhibitor, single point]. For `CC(C)c1cc(=O)[nH]c(SCC(=O)NC2CCCC2)n1`, the Potency was inconclusive: 37.9 µM [inhibitor, partial curve, poor fit]. In the case of `O=C(OCC#Cc1c(COC(=O)c2ccccc2)nnn1Cc1ccccc1)c1ccccc1`, the “activity change, negative = inhibition” value was inactive: -0.832%. `COc1ccc(C(=O)Nc2cc3c4c(c2)C(C)C(=O)N4CCC3)c(OC)c1` (stereo not drawn) was tested, and the Potency was inconclusive: 26.9 µM [inhibitor, single point]. With `CC(C)OCC(O)CS(=O)(=O)Cc1ccccc1` (stereo not drawn) the “activity change, negative = inhibition” value was inactive: 0.254%. With `COC(=O)c1sccc1NC(=O)Nc1cccc(C)c1C` the “activity change, negative = inhibition” value was inactive: -18.5%. With `CC1CCCN(C(=O)c2ccc3c(c2)OCCO3)C1` (stereo not drawn) the Potency was inconclusive: 19 µM [inhibitor, partial curve, poor fit]. With `CC1=NN(c2ccccc2)C(=O)/C1=C\c1cc(C)n(-c2ccccc2)c1C` the Potency was active: 0.536 µM. `CCCCCCCCCCCC(=O)O` was tested, and the Potency was inconclusive: 30.1 µM [inhibitor, single point]. For `CCOC(=O)CSCC(=O)Nc1nnc(-c2cccc([N+](=O)[O-])c2)s1`, the Potency was inconclusive: 21.3 µM [inhibitor, partial curve, poor fit]. `O=C(O)c1ccccc1NS(=O)(=O)c1ccc2c(c1)OCCO2` was tested, and the Potency was inconclusive: 37.9 µM [inhibitor, partial curve, poor fit]. With `Cc1ccc(C(=O)c2ccc(C(F)(F)F)cc2)cc1` the “activity change, negative = inhibition” value was inactive: -1.05%. With `COc1cc(NS(=O)(=O)c2ccc(NC(=O)/C=C/c3ccc([N+](=O)[O-])cc3)cc2)ncn1` the Potency was inconclusive: 23.9 µM [inhibitor, single point]. In the case of `Cc1ccc(-n2ncc3c(NCCC4=CCCCC4)ncnc32)cc1`, the Potency was inconclusive: 21.3 µM [inhibitor, partial curve]. `Cc1ccccc1N1CCN(S(=O)(=O)c2nnc(NC(=O)c3ccco3)s2)CC1` was tested, and the “activity change, negative = inhibition” value was inactive: -0.623%. In the case of `Cn1c(=O)c2c(nc(SCC(=O)Nc3ccccc3F)n2Cc2ccc(Cl)cc2)n(C)c1=O`, the “activity change, negative = inhibition” value was inactive: -0.229%. For `CC(C)OC(=O)CC12CN(C)CC(CC(=O)OC(C)C)(CN(C)C1)C2=O`, the Potency was inconclusive: 23.9 µM [inhibitor, partial curve]. `O=C(NCc1ccco1)c1sc(=S)n2c1[nH]c(=O)c1ccccc12` was tested, and the Potency was inconclusive: 37.9 µM [inhibitor, single point]. In the case of `O=C1c2ccccc2C(=O)N1CCOCCN1C(=O)c2ccccc2C1=O`, the “activity change, negative = inhibition” value was inactive: -1.1%. For `O=C(COCC(=O)N/N=C/c1ccccc1F)N/N=C/c1ccccc1F`, the Potency was inconclusive: 30.1 µM [inhibitor, single point]. `COc1ccc(C(=O)Nc2nnc(SCc3cc(=O)c4cc(C)cc(C)c4[nH]3)s2)cc1` was tested, and the Potency was inconclusive: 37.9 µM [inhibitor, single point]. For `O=C(NNC(=O)c1ccccc1O)c1ccc(Cl)c(S(=O)(=O)N2CCCCC2)c1`, the Potency was inconclusive: 21.3 µM [inhibitor, single point]. In the case of `COC(=O)c1c(C(=O)OC)c(-c2cccc(F)c2)n2c1CS(=O)(=O)C2`, the “activity change, negative = inhibition” value was inactive: -0.96%. In the case of `CC(=O)Oc1ccc2c(c1)cc(C)n2C`, the Potency was inconclusive: 33.8 µM [inhibitor, partial curve, poor fit]. With `O=C(Nc1ccccc1Cl)C1CC(=O)N(Cc2ccco2)C1` (stereo not drawn) the “activity change, negative = inhibition” value was inactive: -0.303%. In the case of `O=C(CSc1ccc(Cl)cc1)N1CCCC1`, the Potency was inconclusive: 26.9 µM [inhibitor, partial curve, poor fit]. `COc1cccc(CN(C)C(=O)c2cc(-c3ccc(F)cc3)nc3ccccc23)c1` was tested, and the Potency was inconclusive: 26.9 µM [inhibitor, single point]. With `Brc1ccc2ncnc(NCc3ccccc3)c2c1` the “activity change, negative = inhibition” value was inactive: 4.57%. In the case of `CCC(C)(NC=O)C(=O)Nc1c(C)cccc1C` (stereo not drawn), the “activity change, negative = inhibition” value was inactive: -0.834%. For `O=C(C1CCCN(Cc2ccccc2[N+](=O)[O-])C1)N1CCCCC1` (stereo not drawn), the “activity change, negative = inhibition” value was inactive: 0.542%. For `COC(=O)c1scc(-c2ccc(C)cc2)c1S(=O)(=O)N1CCN(c2ccc(C(C)=O)cc2)CC1`, the “activity change, negative = inhibition” value was inactive: -2.13%. In the case of `S=c1[nH]c2ccc(Cl)cc2s1`, the Potency was inconclusive: 37.9 µM [inhibitor, partial curve, poor fit]. In the case of `Cc1nc2nc(NCc3ccc(Cl)cc3)[nH]n2c(=O)c1Cc1ccccc1`, the Potency was inconclusive: 7.57 µM [inhibitor, partial curve, poor fit]. With `Cc1cccc(NC(=O)N2C3CCCC2CC(NC(=O)C(C)(C)C)C3)c1` (stereo not drawn) the “activity change, negative = inhibition” value was inactive: 4.4%. For `CCc1c(C)nc2nncn2c1Nc1ccc(C(C)C)cc1`, the “activity change, negative = inhibition” value was inactive: -9.66%. With `O=C(Nc1cc(N2CCOCC2)ncn1)c1ccc(F)cc1` the Potency was inconclusive: 37.9 µM [inhibitor, partial curve, poor fit]. With `O=S(=O)(Nc1nc2ccc(Cl)cc2s1)c1cccs1` the Potency was inconclusive: 26.9 µM [inhibitor, single point]. With `O=c1c2ccccc2nnn1Cc1ccc2ccccc2c1` the Potency was inconclusive: 21.3 µM [inhibitor, single point]. For `COc1ccc(NC(=S)Nc2ccc3snnc3c2)cc1`, the Potency was inconclusive: 37.9 µM [inhibitor, partial curve, poor fit]. `COc1ccc(C(=O)Nc2ccncc2)cc1S(=O)(=O)N1CCOCC1` was tested, and the Potency was inconclusive: 21.3 µM [inhibitor, partial curve, poor fit]. For `OCCNc1nc(Nc2ccc(O)cc2)nc2ccccc12`, the Potency was inconclusive: 23.9 µM [inhibitor, partial curve, poor fit]. `OCCCN=C1CCCc2c1[nH]c1ccc(Cl)cc21` was tested, and the Potency was inconclusive: 37.9 µM [inhibitor, partial curve, poor fit]. In the case of `Cc1cnc(NC(=O)c2ccc(Cl)nc2)s1`, the Potency was active: 12 µM. `COc1ccc(N2CCN(C(=O)CCn3c(=O)c4cccn4c4cccnc43)CC2)cc1` was tested, and the “activity change, negative = inhibition” value was inactive: -5.51%. For `Oc1c(C=NCc2ccncc2)sc2ccccc12`, the Potency was inconclusive: 16.9 µM [inhibitor, partial curve]. `Cc1nc2cc(NCc3cc([N+](=O)[O-])ccc3O)ccc2n1Cc1ccccc1` was tested, and the Potency was inconclusive: 26.9 µM [inhibitor, partial curve, poor fit]. For `O=C(Nc1cccc(NC(=O)c2cccs2)c1)c1cccnc1`, the Potency was inconclusive: 37.9 µM [inhibitor, partial curve, poor fit]. With `Cc1cc(NC(=O)/C=C/c2ccc(F)cc2)n(-c2nc3ccccc3[nH]2)n1` the Potency was inconclusive: 0.757 µM [inhibitor, full curve]. With `COC(=O)C1C(=O)c2c([nH]c(C(=O)OC3CCCCCC3)c2C)CC1C` (stereo not drawn) the Potency was inconclusive: 1.69 µM [inhibitor, partial curve, poor fit]. In the case of `Fc1cccc(NC(=S)NC2CCCCCCC2)c1`, the Potency was inconclusive: 26.9 µM [inhibitor, partial curve, poor fit]. `C=CCn1cccc(C(=O)Nc2ccc(C)c(Cl)c2)c1=O` was tested, and the Potency was active: 9.53 µM. In the case of `Nc1cccc2c3c(oc12)CCCC3`, the Potency was inconclusive: 26.9 µM [inhibitor, single point]. With `CCN(C(=O)c1cc2c(s1)-c1ccccc1OC2)c1cc(Cl)ccc1OC` the “activity change, negative = inhibition” value was inactive: 3.74%. For `N=c1c2c(ncn1Cc1ccco1)Oc1ccc3ccccc3c1C2c1ccccc1` (stereo not drawn), the “activity change, negative = inhibition” value was inactive: -5.33%.
